Assay results reported in paper PMC4336329 (PLoS ONE, 2015).
In all, about 310,000 compounds went through this assay and about 14,000 (4.5%) showed an effect of 50% or more. Effects have a minus sign here. The list shows a part of the results.

These molecules were tested against human ether-à-go-go-related gene (hERG) potassium channel (human, UniProt Q12809) (assay: primary screen, population patch clamp on CHO cells stably expressing hERG).
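Also: peak tail current of the secondary pulse compared with the same well before compound.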

Chain of human ether-à-go-go-related gene (hERG) potassium channel (Q12809 whole entry, looked up): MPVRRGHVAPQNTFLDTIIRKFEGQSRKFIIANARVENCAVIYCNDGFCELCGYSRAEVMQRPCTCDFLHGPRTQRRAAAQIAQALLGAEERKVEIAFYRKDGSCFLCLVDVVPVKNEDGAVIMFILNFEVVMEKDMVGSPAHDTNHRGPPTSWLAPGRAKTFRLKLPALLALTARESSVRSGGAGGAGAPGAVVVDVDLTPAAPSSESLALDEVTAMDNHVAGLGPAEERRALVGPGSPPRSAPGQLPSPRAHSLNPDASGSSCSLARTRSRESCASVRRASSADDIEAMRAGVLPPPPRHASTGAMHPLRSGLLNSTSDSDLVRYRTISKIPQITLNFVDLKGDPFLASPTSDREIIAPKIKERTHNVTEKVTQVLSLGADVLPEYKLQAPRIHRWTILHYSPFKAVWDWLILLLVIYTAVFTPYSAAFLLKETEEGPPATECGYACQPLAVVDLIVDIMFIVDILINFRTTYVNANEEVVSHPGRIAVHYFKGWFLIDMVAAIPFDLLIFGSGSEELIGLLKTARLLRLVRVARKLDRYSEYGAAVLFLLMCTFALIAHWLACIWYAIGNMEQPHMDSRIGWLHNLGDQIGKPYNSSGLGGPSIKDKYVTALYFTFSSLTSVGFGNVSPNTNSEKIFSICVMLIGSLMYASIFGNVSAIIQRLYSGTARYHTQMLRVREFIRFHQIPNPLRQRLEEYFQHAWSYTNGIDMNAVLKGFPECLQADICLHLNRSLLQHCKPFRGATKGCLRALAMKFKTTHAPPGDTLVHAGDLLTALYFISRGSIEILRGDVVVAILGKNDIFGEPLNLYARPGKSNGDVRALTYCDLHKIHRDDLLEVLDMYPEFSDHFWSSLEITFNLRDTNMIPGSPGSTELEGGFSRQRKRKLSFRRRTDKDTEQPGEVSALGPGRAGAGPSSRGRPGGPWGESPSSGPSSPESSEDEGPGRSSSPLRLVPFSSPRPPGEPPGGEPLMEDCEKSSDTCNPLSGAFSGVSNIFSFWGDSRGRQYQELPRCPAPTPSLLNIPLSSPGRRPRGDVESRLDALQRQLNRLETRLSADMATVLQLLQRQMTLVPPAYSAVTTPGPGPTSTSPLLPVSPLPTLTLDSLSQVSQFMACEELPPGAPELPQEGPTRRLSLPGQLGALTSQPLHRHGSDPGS

Row | SMILES | hERG current change (%, negative = inhibition) at 10uM [%]
1 | COc1ccc(C(=O)N2C(=S)NC(=O)/C2=C\c2ccc(C)cc2)cc1 | -2.42
2 | O=C(N/N=C/c1ccc[nH]1)c1sc2ccccc2c1Cl | -17.9
3 | NC(=O)C1CCN(c2nnnn2-c2ccccc2)CC1 | 11.4
4 | COc1cccc(-n2nnc3c(=O)n(CC(=O)N4CCC(Cc5ccccc5)CC4)cnc32)c1 | 9.22
5 | CC1CCN(CCCCOc2ccccc2Br)CC1 | -48.9
6 | O=C(COc1ccc(/C=N/NC(=O)c2cc3ccccc3o2)cc1Br)Nc1ccccc1 | 19.3
7 | COc1ccc(-c2csc(N(C)C(=O)c3ccco3)n2)cc1 | 10.8
8 | C/C(N)=C(/C#N)C(=O)CSc1nc2ccccc2c(=O)n1-c1ccc(C)c(Cl)c1 | 4.29
9 | CC(C)NC(=O)Cn1c(SCC(=O)N2c3ccccc3CC2C)nc2ccccc21 (stereo not drawn) | 3.85
10 | COc1ccc(C2(c3ccc(OC)cc3)NC(=O)N(CC(=O)Nc3ccc(OC)c(OC)c3)C2=O)cc1 | -2.49
11 | O=c1c2ccccc2nc(/C=C/c2ccccc2F)n1-c1ccccc1O | 18.6
12 | COc1ccc(-c2cc(C(=O)Nc3c(C)n(C)n(-c4ccccc4)c3=O)c3ccccc3n2)cc1OC | 28.8
13 | Cc1nc(N(C)C)ncc1C(=O)O | 6.75
14 | COc1ccc(NC(=O)Nc2nnc(C(C)C)s2)cc1 | -4.08
15 | CCCn1nc2cc(C(=O)NCc3ccccc3OC)ccc2c1OCC | 7.72
16 | CCOc1cc(/C=C2/NC(=O)N(CC(=O)Nc3cccc(C)c3)C2=O)ccc1O | 2.36
17 | CCOC(=O)Cc1csc(NC(=O)c2ccc(C)cc2)n1 | -9.73
18 | CC1(C)CC(=O)C=C(c2ccc(OC(F)(F)F)cc2)C1 | -34.3
19 | Cc1c(C(C)CCCO)oc(=O)c2c1Oc1c(C)c(C(C)C[C@@H](C)O)oc(=O)c1C2 (stereo partly drawn) | 4.92
20 | Cc1ccc(C(=O)NC2CCCCCC2)o1 | -14.2
21 | COc1ccc(-n2c(Cc3cccn3C)nnc2SCC(=O)N2CCCC2)cc1 | -9.54
22 | CC(C)CNc1nc(S(=O)(=O)c2ccccc2)c(Cl)s1 | -11.5

Row | SMILES | hERG current change (%, negative = inhibition) at 10uM [%]
23 | COc1cccc(CNC(=O)c2ccc(NS(=O)(=O)c3ccc4[nH]c(=O)[nH]c4c3)cc2)c1 | 21.4
24 | CCN(CC)C(=O)COc1ccc(CC(=O)O)cc1OC | 22.3
25 | CN1CCCN(C(=O)COc2ccc(F)cc2Cl)CC1 | -12.5
26 | Cc1ccc(O)c(NC(=S)NC(=O)c2ccc(-c3ccc(Cl)cc3)o2)c1 | 15.8
27 | CCOC(=O)c1c(NC(=S)Nc2ccc(F)cc2)sc2c1CCC2 | -6.44
28 | CC(=O)Nc1ccc(S(=O)(=O)NC2CC2)cc1 | 9.08
29 | COC(=O)c1ccc(NC(=O)CN2CCN(c3ccccc3C)CC2)cc1 | -10.6
30 | COc1cccc(CNc2ncnc3ccc(-c4c(C)noc4C)cc23)c1 | -45.9
31 | CCNC(=O)CC1C(=O)N(c2ccc(F)cc2)C(=O)N1CCC(C)C (stereo not drawn) | -3.7
32 | Cc1ccc(C)c(OCCC(=O)NNC(=O)c2ccccc2F)c1 | -8.61
33 | Cc1ccccc1C(C)NC(=O)COC(=O)Cn1cc(C(F)(F)F)ccc1=O (stereo not drawn) | 3.43
34 | O=C(NC1CCCCCC1)C1c2ccccc2C(=O)N1Cc1cccs1 (stereo not drawn) | -34.6
35 | Cc1ccc2c(c1)N(C(=O)CCC(=O)N1CCC3(CC1)OCCO3)CCO2 | 3.09
36 | COc1cc(NS(=O)(=O)c2ccc3c(c2)C(C)(C)C(=O)N3C)cc(OC)c1 | -10
37 | CCNC(=O)O/N=C1\CCCCC1c1ccc([N+](=O)[O-])cc1[N+](=O)[O-] (stereo not drawn) | -4.84
38 | COc1cccc(C(=O)/C=C/Nc2ccc(S(=O)(=O)Nc3ccc(C(C)=O)cc3)cc2)c1 | 21.4
39 | O=C(CN1C(=O)NC2(CCCC2)C1=O)Nc1nc2ccc(F)cc2s1 | -23.8
40 | O=C(NCCN1CCOCC1)c1ccc(F)cc1 | 1.66
41 | Cc1ccc(NC(=S)N2CCC(N(C)CC3CCCO3)CC2)c(C)c1 (stereo not drawn) | -17.8
42 | Cc1sc(NC(=O)c2ccccc2F)c(CN2CCCCC2)c1C | -0.974
43 | CC(C)N1CCc2c(sc(NC(=O)Cc3ccccc3)c2C(N)=O)C1.Cl | -11.5
44 | COc1ccc(NC(=S)NNC(=O)CNc2ccc(Cl)cc2)cc1 | -5.15

Row | SMILES | hERG current change (%, negative = inhibition) at 10uM [%]
45 | CCCCS(=O)(=O)NC1=NCN(CCO)CN1 | 14.4
46 | CCN(CC)CCN(C(=O)C1CCCCC1)c1nc2cc3c(cc2s1)OCO3.Cl | -14.6
47 | COc1ccc(S(=O)(=O)N2CCOC2CNC(=O)C(=O)NCCc2ccc(OC)c(OC)c2)cc1 (stereo not drawn) | -4.65
48 | CCN(Cc1cc2cc(C)ccc2[nH]c1=O)C(=O)c1cccc([N+](=O)[O-])c1 | -37.9
49 | COc1ccc(CCNC(=O)CSc2nc(=O)n3cc(C)ccc3n2)cc1OC | 12.9
50 | O=C(CN1C(=O)S/C(=C\c2cccs2)C1=O)Nc1ccc(C(=O)O)c(O)c1 | 12.8
51 | OC1CCCN(CC(O)COc2ccc(-c3ccccc3)cc2)C1 (stereo not drawn) | -52.9
52 | Cc1ccc(C(=O)NCCCNC(=O)COc2ccccc2Cl)cn1 | -2.99
53 | O=C(NCCc1ccccn1)C1CCN(S(=O)(=O)c2ccc3ccccc3c2)CC1 | -22.9
54 | Cc1nc2ccc(S(=O)(=O)NC(C(=O)N3CCn4c3nc3ccccc34)C(C)C)cc2s1 (stereo not drawn) | 3.89
55 | COc1ccc(CNC(=O)C(c2cccc(C)c2)N(C(=O)c2csnn2)C2CC2)cc1 (stereo not drawn) | -38.8
56 | CNC(=O)CSc1nc2ccccc2c(=O)n1C1CCCCC1 | -14.6
57 | COC(=O)/C(C#N)=C/c1cc(C)sc1C | 17.7
58 | C#CCOCCOCCOCCNc1nc(N2CCN(C(=O)C([C@@H](C)CC)n3cc(C(N)Cc4ccc(O)cc4)nn3)CC2)nc(N2CCN(C(=O)[C@H](CCC(=O)O)n3cc(C(N)Cc4ccc(O)cc4)nn3)CC2)n1.Cl (stereo partly drawn) | 14.6
59 | O=C(CSC1=NS(=O)(=O)c2ccccc2N1)NCc1ccc(F)cc1 | -2.68
60 | CC1(C)Cc2c(sc(NC(=O)C(=O)NCCCN3CCOCC3)c2C#N)CO1 | 4.1
61 | CNc1c(NC(=O)c2ccc3c(c2)OCO3)c(=O)oc2ccccc12 | 24.9
62 | CC(C)(C)NC(=O)CSc1ccc(S(=O)(=O)N2CCOCC2)cn1 | -1.22
63 | O=C(/C=C/c1ccccc1Cl)Nc1cccc(S(=O)(=O)NC2=NCCCCC2)c1 | -44.9
64 | CN(c1ccc(C(=O)NCC2CCCO2)cc1)S(=O)(=O)c1ccccc1 (stereo not drawn) | 6.84
65 | Cc1ccc(OCCN(C)C(=O)C2CCC(=O)N(CC3CCCCC3)C2)cc1 (stereo not drawn) | -49.1
66 | COc1ccccc1-n1c(-c2ccc(F)cc2)coc1=O | 4.72

Row | SMILES | hERG current change (%, negative = inhibition) at 10uM [%]
67 | COc1cc(C2CC(=O)OC3=C2C(=O)CC(C)(C)C3)cc(OC)c1OC (stereo not drawn) | 16.8
68 | OCC1(CO)COC(CCc2ccccc2)=N1 | 16.1
69 | S=C(c1ccc(-c2cccc(Cl)c2)o1)N1CCCCC1 | 21.7
70 | COC(=O)c1ccc(NC(=O)c2cccc(C)c2)cc1 | -4.33
71 | CC1CC(C)CN(CCCNC(=O)C2CCCN(S(=O)(=O)N3CC(C)CC(C)C3)C2)C1 (stereo not drawn) | -61
72 | Cc1ncc(CN2CCCCC2C(=O)Nc2ccc(Oc3ccccc3)nc2)cn1 (stereo not drawn) | -0.713
73 | O=C(Cn1ncc2c([nH]c3ccccc32)c1=O)N1CCc2ccccc2C1 | 14.5
74 | CCCn1nnc(NC(=O)/C=C/c2ccccc2)n1 | 2.12
75 | Cc1ccc(C(C(=O)NC(C)(C)C)N(Cc2cccs2)C(=O)c2csnn2)cc1 (stereo not drawn) | -5.79
76 | CCOC(=O)c1c(C)nsc1NCc1ccccc1 | 5.94
77 | COc1cccc(C(=O)Nc2ccc(F)cc2F)c1 | 1.76
78 | COc1ccc(S[C@@H](CCN2CC[C@H](O)CCC2=O)c2ccccc2)cc1 | -3.2
79 | O=S(=O)(c1ccc2nc(-c3ccccc3)[nH]c2c1)N1CCN(c2ccc(Cl)cc2)CC1 | -1.2
80 | COc1cccc(NC(=O)Nc2ccncc2)c1 | 5.96
81 | CCCSC1=C(C#N)C(c2cc(OC)ccc2OC)CC(=O)N1 (stereo not drawn) | 5.53
82 | COc1ccc(CC(=O)Nc2nc(-c3cccnc3)cs2)cc1 | 6.34
83 | CN(C)c1ccc(N2C(=O)CC(c3ccccc3)CC2=O)cc1 | 7.37
84 | Cn1c(C(=O)OC(C(=O)NCC2CCCO2)c2cccnc2)cc2sccc21 (stereo not drawn) | -11.8
85 | O=C1c2cccc3c([N+](=O)[O-])ccc(c23)C(=O)N1O | 11.4
86 | Cc1cccc(C)c1NC(=O)C(C)N (stereo not drawn) | -15.4
87 | CCS(=O)(=O)N1CCC(C(=O)NCCc2ccc(OC)c(OC)c2)CC1 | -8.71
